Measured values published in the GPR68 mutational scans of Howard et al. (2025).
The least precise scores are not listed. Not listed are two conditions whose scores span a narrow range. Names with del lack the residues named; names with ins carry added residues between the positions named. For part of these data: The concentration of ogerin is not given here.

B1: GPR68, Q15743 (parent)
chain: MGNITADNSSMSCTIDHTIHQTLAPVVYVTVLVVGFPANCLSLYFGYLQIKARNELGVYLCNLTVADLFYICSLPFWLQYVLQHDNWSHGDLSCQVCGILLYENIYISVGFLCCISVDRYLAVAHPFRFHQFRTLKAAVGVSVVIWAKELLTSIYFLMHEEVIEDENQHRVCFEHYPIQAWQRAINYYRFLVGFLFPICLLLASYQGILRAVRRSHGTQKSRKDQIQRLVLSTVVIFLACFLPYHVLLLVRSVWEASCDFAKGVFNAYHFSLLLTSFNCVADPVLYCFVSETTHRDLARLRGACLAFLTCSRTGRAREAYPLGAPEASGKSGAQGEEPELLTKLHPAFQTPNSPGSGGFPTGRLA

Tests used:
[1] = variants of: B1; experiment: cAMP reporter score (Enrich2 score, wild type = 0); higher = more signal; HEK293T, FACS bins
[2] = variants of: B1; experiment: surface expression score (Enrich2 score, wild type = 0); higher = more signal; HEK293T, FACS bins

Variant | cAMP reporter score ([1]; pH 5.5) | cAMP reporter score ([1]; pH 6) | cAMP reporter score ([1]; pH 6, modulator: ogerin) | cAMP reporter score ([1]; pH 6.5, modulator: ogerin) | surface expression score [2]
R301M | 0.038 | -0.009 | -0.076 | 0.028 | -0.406
R301Q | -0.047 | -0.708 | 0.652 | -0.378 | -1.06
R301G | 0.306 | -0.7 | 0.641 | 0.89 | -0.165
R301P | 1.03 | 0.019 | 0.911 | 0.476 | 0.437
R301W | 0.137 | -0.267 | 0.219 | 0.764 | 0.198
R301L | 1.18 |  | 0.409 | -0.248 | -0.326
R301I | 0.519 | 0.217 | 0.201 | -0.514 | 
R301H | 0.236 |  | 0.26 | -0.44 | -0.471
T293I | -0.813 | -0.903 | -1.54 | -0.86 | -0.342
T293P | -1.07 | -1.01 | -0.849 | -1.05 | -0.003
T293W | -0.111 | -1.25 | -0.967 | -1.12 | 0.198
T293H | -0.083 | 0.488 | -0.527 | -1.81 | 
T293G | -0.069 | 0.404 | 0.157 | -0.855 | 1.11
T293M | -0.202 | -1.69 | -1.44 | -1.19 | 0.848
T293Q | 0.604 | -0.219 | -0.149 | -0.827 | 1.06
T293K | -0.775 | -1.38 | -0.384 | -0.928 | -0.401
T293S | 3.69 |  | 3.27 | 0.41 | 3.53
T293V | -0.868 | -0.38 | -1.08 | -0.931 | -0.826
T293L | -1.22 | -0.404 | -1.44 | -0.638 | 0.603
T293N | 0.018 | 0.025 | 0.165 | -0.708 | 0.309
T293Y | -0.858 | -0.741 | -0.986 | -1.55 | -0.331

Variant | cAMP reporter score ([1]; pH 5.5) | cAMP reporter score ([1]; pH 6) | cAMP reporter score ([1]; pH 6, modulator: ogerin) | cAMP reporter score ([1]; pH 6.5, modulator: ogerin) | surface expression score [2]
T293R | 0.079 | -0.723 | 0.265 | -0.415 | -0.448
T293_R295del | -1.13 | -1.11 | -0.237 | -0.822 | 0.838
L297_A298insGSG | -1.19 | -1.39 | -1.19 | -1.43 | -1.27
A298_R299insGSG | -1.32 | -0.393 | -0.149 |  | 0.121
R299_L300insGSG | -0.995 | -0.694 | -1.17 | -1.28 | -0.264
R301_G302del | -0.648 | -0.758 | -0.908 | -0.554 | 
H294del | -1.01 | -1.14 | -0.754 | -1.23 | 0.261
H294_R295del | -0.019 | -0.198 | -0.14 | -1.06 | 1.32
L297_A298insGS | -1.06 | -0.53 | -1.53 | -1.56 | -0.597
R295_D296insG | -0.933 | -0.62 | -1.36 | -1.06 | 0.35
L297_A298del | -1.66 | -0.835 | -1.32 | -1.12 | -0.033
D296_A298del | -0.115 | -0.884 | 0.059 | -0.657 | -0.876
A298_R299insG | -0.804 | -1.22 | -0.78 | -1.17 | 0.42
D296_L297insG | 0.034 | -1.92 | -0.305 | -1.05 | 1.12
L305_A306insGS | 0.468 | 0.132 | 0.47 | 0.197 | 0.431
T293del | -1.77 |  | -0.729 | -1.12 | 0.346
H294C | -0.29 | 0.018 | -0.367 | -0.841 | 0.354
H294F | -0.944 | -1.15 |  | -1.2 | 0.126
H294R | 0.462 | 1.28 | 0.134 | 1.39 | 0.145
H294S | -0.268 | -0.211 | -0.696 | 0.552 | 1.15
H294Q | 1.62 | 0.082 | 1.25 |  | 0.816

Variant | cAMP reporter score ([1]; pH 5.5) | cAMP reporter score ([1]; pH 6) | cAMP reporter score ([1]; pH 6, modulator: ogerin) | cAMP reporter score ([1]; pH 6.5, modulator: ogerin) | surface expression score [2]
H294T | -0.472 | -0.403 | -1.08 | -0.948 | 1.22
H294E | -0.082 | -0.178 | -0.104 | -0.76 | 1.13
H294N | 0.939 | -1.12 | 0.858 | -0.143 | 2.02
H294P | -1.57 | -0.894 | -1.35 | -0.916 | 0.414
H294M | -0.276 | -1.26 | 0.69 | -0.229 | 0.854
H294L | -0.595 |  | -0.156 |  | 0.033
H294A | -0.211 | -1.06 | -0.029 | -1.05 | 1.49
H294Y | 0.564 | -1.11 | 0.075 | -0.936 | 0.87
H294W | -0.149 | 0.988 |  | 0.944 | -1.38
H294I | -0.852 | 0.643 | -0.597 | -0.219 | 0.115
H294K | 0.614 | 1.76 | 0.646 | 1.03 | 1.14
H294G | 1.09 | 0.039 | -0.169 | 0.451 | 2.38
H294D | -1.29 | -1.02 | -1.56 | -1.61 | -0.784
H294_R295insGSG | -1.41 | -0.975 | -1.36 | -0.976 | 0.08
T293_H294del | -1.62 | -1.13 | -2.32 | -0.867 | 0.424
L297_A298insG | -0.539 | 1.41 | -0.205 | 0.222 | 0.563
T293_H294insG | -1.37 | -0.612 | -0.767 | -0.34 | -0.232
C304_L305insGS | -0.53 | -0.458 | -0.624 | -0.596 | -0.425
D296_L297insGSG | -0.365 | -0.518 | -1.05 | -0.985 | 2.2
R301del | 0.34 | -0.4 | -0.219 | -1.24 | -1.25
